Some of the results follow. Read counts after selection give these values, which scatter widely. Scores sum up all selected molecules that hold the word; the word was not tested alone.
These sequences were tested on IMP3 KH1-4 (assay: 6-mer SELEX enrichment z-score vs GST control; IMP3 is the RNA-binding protein IGF2BP3; higher = more enriched by binding). Conditions: construct: KH1-4 (164-579); SELEX round: R4.
Description: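 SELEX-seq with GST-tagged IMP3 KH1-4 (Pro164-Lys579) and an N40 RNA pool, round 4. 6-mer z-score of sequence-tag enrichment normalised to the corresponding GST SELEX round; RNA k-mers written as DNA (T for U).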

IMP3 KH1-4, sequence (chain, as listed by the source): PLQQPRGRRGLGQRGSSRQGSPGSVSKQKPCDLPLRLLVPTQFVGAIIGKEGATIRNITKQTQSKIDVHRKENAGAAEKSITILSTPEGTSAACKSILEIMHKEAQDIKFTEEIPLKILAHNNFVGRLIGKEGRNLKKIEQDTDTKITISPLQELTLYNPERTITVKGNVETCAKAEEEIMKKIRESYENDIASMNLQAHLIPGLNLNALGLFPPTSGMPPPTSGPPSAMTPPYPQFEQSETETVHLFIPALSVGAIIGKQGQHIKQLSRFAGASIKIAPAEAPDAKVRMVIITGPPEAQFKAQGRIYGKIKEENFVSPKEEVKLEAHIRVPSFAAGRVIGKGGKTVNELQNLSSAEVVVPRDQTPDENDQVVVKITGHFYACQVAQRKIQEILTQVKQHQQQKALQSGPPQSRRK

Row | Sequence | 6-mer SELEX enrichment z-score
1 | CTATGC | 0.015
2 | AAGACG | -0.849
3 | GTTTTG | -0.322
4 | AACTGG | -0.103
5 | ACCCAG | -2.07
6 | ATCACA | 2.23
7 | ACCATC | 0.394
8 | CTTCCC | -0.276
9 | CATCAC | 1.79
10 | TGCTAC | 0.205
11 | TCCCTC | 0.001
12 | TCAACC | -0.579
13 | TCATGT | 0.727
14 | GATGCC | -1.09
15 | ATCGCT | 0.44
16 | CTGCCT | -0.391
17 | CTCCTA | 0.315
18 | ACTAAA | 0.57
19 | CGACAC | -0.461
20 | ACTCGC | -0.899

Row | Sequence | 6-mer SELEX enrichment z-score
21 | ACACAA | 1.81
22 | TGTACT | -0.181
23 | CGGAAC | -0.539
24 | GCTACG | -0.284
25 | CCCATG | -0.531
26 | TAGAGT | 0.036
27 | CGTAGT | -1.24
28 | ATGTTT | 0.327
29 | CTGGGC | -0.647
30 | AGAACC | -1.04
31 | GGGCAT | 0.817
32 | GTACGC | -0.426
33 | ATTAAA | 1.55
34 | ACACAC | 2.43
35 | TTATAA | 1.47
36 | TGTTAT | 0.435
37 | CTTAAA | -0.044
38 | CGTGGC | -0.415
39 | CTCTGA | -0.429
40 | GATATT | 0.987

The sequences below were run against IMP3 full-length (UniProt O00425) in the same assay as above. Conditions: construct: FL IMP3 (1-579); SELEX round: R4.
UniProt O00425, sequence (O00425 whole entry): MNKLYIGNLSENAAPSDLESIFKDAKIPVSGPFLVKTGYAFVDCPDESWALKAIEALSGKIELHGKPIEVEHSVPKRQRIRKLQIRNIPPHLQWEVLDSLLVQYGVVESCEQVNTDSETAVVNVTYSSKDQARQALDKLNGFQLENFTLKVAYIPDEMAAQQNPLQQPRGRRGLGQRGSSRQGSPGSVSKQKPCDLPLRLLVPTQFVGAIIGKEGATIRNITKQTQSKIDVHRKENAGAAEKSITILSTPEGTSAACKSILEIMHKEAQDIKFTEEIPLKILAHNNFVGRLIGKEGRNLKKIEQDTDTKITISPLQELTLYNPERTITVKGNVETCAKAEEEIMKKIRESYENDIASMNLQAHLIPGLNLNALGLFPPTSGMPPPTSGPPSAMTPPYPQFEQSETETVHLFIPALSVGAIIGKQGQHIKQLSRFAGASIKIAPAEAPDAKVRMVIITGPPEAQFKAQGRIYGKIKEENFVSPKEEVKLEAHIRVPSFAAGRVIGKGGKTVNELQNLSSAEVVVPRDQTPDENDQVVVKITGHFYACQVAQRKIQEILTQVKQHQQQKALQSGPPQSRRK
Description: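 SELEX-seq with GST-tagged full-length IMP3 and an N40 RNA pool, round 4. Each 6-mer is scored as an enrichment z-score of sequence tags containing it, normalised to the matching GST SELEX round. RNA written as DNA (T = U).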

Row | Sequence | 6-mer SELEX enrichment z-score
41 | CTATGC | -0.143
42 | AACTGG | -0.34
43 | ACCATC | 0.905
44 | CTTCCC | -0.822
45 | TCCCTC | -0.307
46 | TCATGT | 0.953
47 | GATGCC | -0.975
48 | CGACAC | 0.523
49 | ACTCGC | -0.316
50 | ACACAA | 2.63
51 | CGGAAC | -0.211
52 | CGTAGT | -0.471
53 | ATGTTT | -0.023
54 | GGGCAT | 1.64
55 | ACACAC | 3.25
56 | CTTAAA | -1.07
57 | CGTGGC | 0.127
58 | CTCTGA | -0.348
59 | GATATT | 0.088

Each sequence was assayed on IMP3 KH1-2 in the same assay as above. Conditions: construct: KH1-2 (164-376); SELEX round: R4.
IMP3 KH1-2, sequence (chain, as listed by the source): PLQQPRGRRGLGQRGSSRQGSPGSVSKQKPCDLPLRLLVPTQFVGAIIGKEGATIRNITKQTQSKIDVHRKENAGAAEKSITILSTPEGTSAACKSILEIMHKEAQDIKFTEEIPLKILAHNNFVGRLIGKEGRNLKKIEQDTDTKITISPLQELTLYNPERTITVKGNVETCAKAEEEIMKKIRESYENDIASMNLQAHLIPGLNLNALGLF
Description: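 SELEX-seq with GST-tagged IMP3 KH1-2 (Pro164-Phe376) and an N40 RNA pool, round 4 (stringent 300/600 mM KCl washes). 6-mer z-score of sequence-tag enrichment normalised to the corresponding GST SELEX round; RNA k-mers written as DNA (T for U).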

Row | Sequence | 6-mer SELEX enrichment z-score
60 | AAGACG | -0.889
61 | GTTTTG | -0.286
62 | ACCCAG | -2
63 | ATCACA | 2.43
64 | CATCAC | 1.6
65 | TGCTAC | 0.187
66 | TCAACC | -0.6
67 | ATCGCT | 0.348
68 | CTGCCT | -0.322
69 | CTCCTA | 0.211
70 | ACTAAA | 0.587
71 | TGTACT | -0.215
72 | GCTACG | -0.24
73 | CCCATG | -0.533
74 | TAGAGT | -0.018
75 | CTGGGC | -0.473
76 | AGAACC | -0.972
77 | GTACGC | -0.428
78 | ATTAAA | 1.25
79 | TTATAA | 1.22
80 | TGTTAT | 0.261

The sequences below were run on IMP3 KH3-4 in the same assay as above. Conditions: construct: KH3-4 (377-579); SELEX round: R4.
IMP3 KH3-4, sequence (chain, as listed by the source): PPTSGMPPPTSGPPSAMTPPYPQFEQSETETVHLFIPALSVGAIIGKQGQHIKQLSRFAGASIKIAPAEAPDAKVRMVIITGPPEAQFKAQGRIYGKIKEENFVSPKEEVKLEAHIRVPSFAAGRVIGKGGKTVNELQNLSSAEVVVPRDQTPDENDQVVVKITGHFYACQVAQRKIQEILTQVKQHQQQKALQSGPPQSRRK
Description: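 SELEX-seq with GST-tagged IMP3 KH3-4 (Pro377-Lys579) and an N40 RNA pool, round 4. 6-mer z-score of sequence-tag enrichment normalised to the corresponding GST SELEX round; RNA k-mers written as DNA (T for U).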

Row | Sequence | 6-mer SELEX enrichment z-score
81 | CTATGC | 0.039
82 | AAGACG | -0.598
83 | GTTTTG | -0.075
84 | AACTGG | -0.108
85 | ACCCAG | -2.38
86 | ATCACA | 1.48
87 | ACCATC | -0.529
88 | CTTCCC | -0.946
89 | CATCAC | 0.33
90 | TGCTAC | 0.086
91 | TCCCTC | -0.507
92 | TCATGT | 0.572
93 | GATGCC | -1.12
94 | ATCGCT | 0.23
95 | CTGCCT | -0.464
96 | CTCCTA | -0.033
97 | ACTAAA | 1.16
98 | CGACAC | -1.18
99 | ACTCGC | -0.972
100 | ACACAA | 1.28

Row | Sequence | 6-mer SELEX enrichment z-score
101 | TGTACT | -0.131
102 | CGGAAC | -0.746
103 | GCTACG | -0.236
104 | CCCATG | -0.939
105 | TAGAGT | 0.262
106 | CGTAGT | -1.07
107 | ATGTTT | 0.546
108 | CTGGGC | -0.481
109 | AGAACC | -1.29
110 | GGGCAT | 0.889
111 | GTACGC | -0.559
112 | ATTAAA | 3.12
113 | ACACAC | 1.1
114 | TTATAA | 2.31
115 | TGTTAT | 0.469
116 | CTTAAA | 0.275
117 | CGTGGC | -0.379
118 | CTCTGA | -0.479
119 | GATATT | 1.31

— the supplement of paper PMC6531468
